Data as given in publication PMC9877181 (Current biology : CB, 2022).

Columns and labels:
BglX = target: T1, BglX (Caulobacter vibrioides, UniProt A0A0H3C5R6); assay: pNPG hydrolysis, absorbance […] nm; assay type: biochemical; conditions: 50 mM Tris-HCl pH 8; 4 μM pNPG
T1 sequence (A0A0H3C5R6 38-767): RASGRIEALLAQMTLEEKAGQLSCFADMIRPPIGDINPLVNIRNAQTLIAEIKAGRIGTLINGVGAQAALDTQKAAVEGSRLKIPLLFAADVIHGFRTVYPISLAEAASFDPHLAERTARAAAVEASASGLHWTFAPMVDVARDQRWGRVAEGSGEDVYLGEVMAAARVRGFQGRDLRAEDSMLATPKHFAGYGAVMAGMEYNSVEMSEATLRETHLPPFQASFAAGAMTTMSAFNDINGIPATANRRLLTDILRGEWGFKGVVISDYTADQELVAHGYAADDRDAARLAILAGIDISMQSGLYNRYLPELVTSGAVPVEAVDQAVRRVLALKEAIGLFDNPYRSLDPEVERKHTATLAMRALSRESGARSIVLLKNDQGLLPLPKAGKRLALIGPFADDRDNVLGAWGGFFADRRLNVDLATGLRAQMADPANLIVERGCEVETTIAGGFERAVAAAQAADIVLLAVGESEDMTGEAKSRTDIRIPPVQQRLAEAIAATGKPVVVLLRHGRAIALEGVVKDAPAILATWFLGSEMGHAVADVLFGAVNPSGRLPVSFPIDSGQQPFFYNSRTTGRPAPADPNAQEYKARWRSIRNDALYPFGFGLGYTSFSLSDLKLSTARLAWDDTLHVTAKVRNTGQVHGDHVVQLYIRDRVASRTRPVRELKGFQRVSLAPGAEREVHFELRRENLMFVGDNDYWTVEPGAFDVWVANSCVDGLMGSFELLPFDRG

EstG = EstG (Caulobacter vibrioides, UniProt A0A0H3C8K6); assay type: biochemical; conditions: 50 mM Tris-HCl pH 8; pNB substrate; competitive, active site

| SMILES | pNPG hydrolysis, absorbance 405 nm (BglX) | inhibition of pNB hydrolysis, absorbance 405 nm (EstG) |
| --- | --- | --- |
| O=[N+]([O-])c1ccc(O[C@@H]2O[C@H](CO)[C@@H](O)[C@H](O)[C@H]2O)cc1 [pNPG, 4-nitrophenyl-β-D-glucopyranoside] | BglX hydrolyzed pNPG in a concentration-dependent manner, confirming its activity as a glucohydrolase | – |
| OC[C@H]1O[C@@H]2O[C@H]3[C@H](O)[C@@H](O)[C@@H](O[C@H]4[C@H](O)[C@@H](O)[C@@H](O[C@H]5[C@H](O)[C@@H](O)[C@@H](O[C@H]6[C@H](O)[C@@H](O)[C@@H](O[C@H]7[C@H](O)[C@@H](O)[C@@H](O[C@H]1[C@H](O)[C@H]2O)O[C@@H]7CO)O[C@@H]6CO)O[C@@H]5CO)O[C@@H]4CO)O[C@@H]3CO [α-CD, α-cyclodextrin] | – | increasing amounts of α-CD reduced EstG’s hydrolysis of pNB in a concentration-dependent manner |
